Measured values as given in the supplement of paper PMC8728848.
The list shows a part of the results.

Columns and labels:
Assay in all cases: glycan array binding signal (z-score within array); higher = stronger binding
Details in all cases: glycan notation: IUPAC condensed, linker removed
[1] = molecular target: Fuc(a1-2)Gal6S(b1-3)GlcNAc
Procedure, shortened: (§1)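 The binding signal is a Z-score computed within each array. Data were drawn from 3228 arrays in the Consortium for Functional Glycomics database, restricted to those with a known protein sequence. Scores were averaged over arrays of the same protein sequence at different concentrations or buffers, and over linkers, and negative values can be taken as non-binding.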

[2] = molecular target: Fuc(a1-2)Gal6S(b1-3)GlcNAc6S
Procedure, shortened: as §1

[3] = molecular target: Fuc(a1-2)Gal6S(b1-4)Glc
Procedure, shortened: as §1

[4] = molecular target: Fuc(a1-2)Gal6S(b1-4)Glc6S
Procedure, shortened: as §1

[5] = molecular target: Fuc(a1-2)[Gal(a1-3)]Gal
Procedure, shortened: as §1

[6] = molecular target: Fuc(a1-2)[Gal(a1-3)]Gal(b1-3)GalNAc
Procedure, shortened: as §1

[7] = molecular target: Fuc(a1-2)[Gal(a1-3)]Gal(b1-3)GalNAc(b1-3)Gal(a1-4)Gal(b1-4)Glc
Procedure, shortened: as §1

[8] = molecular target: Fuc(a1-2)[Gal(a1-3)]Gal(b1-3)GlcNAc
Procedure, shortened: as §1

[9] = molecular target: Fuc(a1-2)[Gal(a1-3)]Gal(b1-3)GlcNAc(b1-2)Man(a1-3)[Fuc(a1-2)[Gal(a1-3)]Gal(b1-3)GlcNAc(b1-2)Man(a1-6)]Man(b1-4)GlcNAc(b1-4)GlcNAc
Procedure, shortened: as §1

[10] = molecular target: Fuc(a1-2)[Gal(a1-3)]Gal(b1-3)GlcNAc(b1-2)Man(a1-3)[Fuc(a1-2)[Gal(a1-3)]Gal(b1-3)GlcNAc(b1-2)Man(a1-6)]Man(b1-4)GlcNAc(b1-4)[Fuc(a1-6)]GlcNAc
Procedure, shortened: as §1

[11] = molecular target: Fuc(a1-2)[Gal(a1-3)]Gal(b1-3)GlcNAc(b1-3)GalNAc
Procedure, shortened: as §1

[12] = molecular target: Fuc(a1-2)[Gal(a1-3)]Gal(b1-3)GlcNAc(b1-6)GalNAc
Procedure, shortened: as §1

[13] = molecular target: Fuc(a1-2)[Gal(a1-3)]Gal(b1-4)Glc
Procedure, shortened: as §1

[14] = molecular target: Fuc(a1-2)[Gal(a1-3)]Gal(b1-4)GlcNAc
Procedure, shortened: as §1

[15] = molecular target: Fuc(a1-2)[Gal(a1-3)]Gal(b1-4)GlcNAc(b1-2)Man
Procedure, shortened: as §1

[16] = molecular target: Fuc(a1-2)[Gal(a1-3)]Gal(b1-4)GlcNAc(b1-2)Man(a1-3)[Fuc(a1-2)[Gal(a1-3)]Gal(b1-4)GlcNAc(b1-2)Man(a1-6)]Man(b1-4)GlcNAc(b1-4)GlcNAc
Procedure, shortened: as §1

[17] = molecular target: Fuc(a1-2)[Gal(a1-3)]Gal(b1-4)GlcNAc(b1-2)Man(a1-3)[Fuc(a1-2)[Gal(a1-3)]Gal(b1-4)GlcNAc(b1-2)Man(a1-6)]Man(b1-4)GlcNAc(b1-4)[Fuc(a1-6)]GlcNAc
Procedure, shortened: as §1

[18] = molecular target: Fuc(a1-2)[Gal(a1-3)]Gal(b1-4)GlcNAc(b1-3)GalNAc
Procedure, shortened: as §1

[19] = molecular target: Fuc(a1-2)[Gal(a1-3)]Gal(b1-4)GlcNAc(b1-3)[Fuc(a1-2)[Gal(a1-3)]Gal(b1-4)GlcNAc(b1-6)]GalNAc
Procedure, shortened: as §1

[20] = molecular target: Fuc(a1-2)[Gal(a1-3)]Gal(b1-4)GlcNAc(b1-6)GalNAc
Procedure, shortened: as §1

[21] = molecular target: Fuc(a1-2)[Gal(a1-3)]Gal(b1-4)[Fuc(a1-3)]Glc
Procedure, shortened: as §1

[22] = molecular target: Fuc(a1-2)[Gal(a1-3)]Gal(b1-4)[Fuc(a1-3)]GlcNAc
Procedure, shortened: as §1

[23] = molecular target: Fuc(a1-2)[Gal(a1-3)]Gal(b1-4)[Fuc(a1-3)]GlcNAc(b1-3)GalNAc
Procedure, shortened: as §1

[24] = molecular target: Fuc(a1-2)[Gal(a1-4)]Gal(b1-4)GlcNAc
Procedure, shortened: as §1

[25] = molecular target: Fuc(a1-2)[GalNAc(a1-3)]Gal
Procedure, shortened: as §1

[26] = molecular target: Fuc(a1-2)[GalNAc(a1-3)]Gal(b1-3)GalNAc(a1-3)[Fuc(a1-2)]Gal(b1-4)GlcNAc
Procedure, shortened: as §1

[27] = molecular target: Fuc(a1-2)[GalNAc(a1-3)]Gal(b1-3)GalNAc(b1-3)Gal(a1-4)Gal(b1-4)Glc
Procedure, shortened: as §1

[28] = molecular target: Fuc(a1-2)[GalNAc(a1-3)]Gal(b1-3)GlcNAc
Procedure, shortened: as §1

[29] = molecular target: Fuc(a1-2)[GalNAc(a1-3)]Gal(b1-3)GlcNAc(b1-2)Man(a1-3)[Fuc(a1-2)[GalNAc(a1-3)]Gal(b1-3)GlcNAc(b1-2)Man(a1-6)]Man(b1-4)GlcNAc(b1-4)GlcNAc
Procedure, shortened: as §1

[30] = molecular target: Fuc(a1-2)[GalNAc(a1-3)]Gal(b1-3)GlcNAc(b1-2)Man(a1-3)[Fuc(a1-2)[GalNAc(a1-3)]Gal(b1-3)GlcNAc(b1-2)Man(a1-6)]Man(b1-4)GlcNAc(b1-4)[Fuc(a1-6)]GlcNAc
Procedure, shortened: as §1

[31] = molecular target: Fuc(a1-2)[GalNAc(a1-3)]Gal(b1-3)GlcNAc(b1-3)GalNAc
Procedure, shortened: as §1

[32] = molecular target: Fuc(a1-2)[GalNAc(a1-3)]Gal(b1-3)GlcNAc(b1-6)GalNAc
Procedure, shortened: as §1

[33] = molecular target: Fuc(a1-2)[GalNAc(a1-3)]Gal(b1-4)Glc
Procedure, shortened: as §1

[34] = molecular target: Fuc(a1-2)[GalNAc(a1-3)]Gal(b1-4)GlcNAc
Procedure, shortened: as §1

[35] = molecular target: Fuc(a1-2)[GalNAc(a1-3)]Gal(b1-4)GlcNAc(b1-2)Man
Procedure, shortened: as §1

[36] = molecular target: Fuc(a1-2)[GalNAc(a1-3)]Gal(b1-4)GlcNAc(b1-2)Man(a1-3)[Fuc(a1-2)[GalNAc(a1-3)]Gal(b1-4)GlcNAc(b1-2)Man(a1-6)]Man(b1-4)GlcNAc(b1-4)GlcNAc
Procedure, shortened: as §1

[37] = molecular target: Fuc(a1-2)[GalNAc(a1-3)]Gal(b1-4)GlcNAc(b1-2)Man(a1-3)[Fuc(a1-2)[GalNAc(a1-3)]Gal(b1-4)GlcNAc(b1-2)Man(a1-6)]Man(b1-4)GlcNAc(b1-4)[Fuc(a1-6)]GlcNAc
Procedure, shortened: as §1

[38] = molecular target: Fuc(a1-2)[GalNAc(a1-3)]Gal(b1-4)GlcNAc(b1-3)Gal(b1-4)GlcNAc
Procedure, shortened: as §1

[39] = molecular target: Fuc(a1-2)[GalNAc(a1-3)]Gal(b1-4)GlcNAc(b1-3)Gal(b1-4)GlcNAc(b1-3)Gal(b1-4)GlcNAc
Procedure, shortened: as §1

[40] = molecular target: Fuc(a1-2)[GalNAc(a1-3)]Gal(b1-4)GlcNAc(b1-3)GalNAc
Procedure, shortened: as §1

[41] = molecular target: Fuc(a1-2)[GalNAc(a1-3)]Gal(b1-4)GlcNAc(b1-3)[Fuc(a1-2)[GalNAc(a1-3)]Gal(b1-4)GlcNAc(b1-6)]GalNAc
Procedure, shortened: as §1

[42] = molecular target: Fuc(a1-2)[GalNAc(a1-3)]Gal(b1-4)GlcNAc(b1-6)GalNAc
Procedure, shortened: as §1

[43] = molecular target: Fuc(a1-2)[GalNAc(a1-3)]Gal(b1-4)[Fuc(a1-3)]GlcNAc
Procedure, shortened: as §1

[44] = molecular target: Fuc(a1-2)[GalNAc(a1-3)]Gal(b1-4)[Fuc(a1-3)]GlcNAc(b1-3)GalNAc
Procedure, shortened: as §1

[45] = molecular target: Fuc(a1-2)[GalNAc(a1-4)]Gal(b1-4)GlcNAc
Procedure, shortened: as §1

B1: CpGal16 (Clavelina picta) (protein)
chain: MAKMITNYVGKRIECIMVATDMMSTVFSLASATGDLPFYINFRQRENSIVMNTRVHGKWQYEKSQSSGGMNFYEPFRLVVEVRPSVFKVTVSTMGEEDGITFNLQYSQITIKPDEIVAMHLGYCNLRSELLVTDL
In the case of B1, the “glycan array binding signal (z-score)” value [1] is reported as -0.361, the “glycan array binding signal (z-score)” value [2] is reported as -0.123 and the “glycan array binding signal (z-score)” value [3] is reported as -0.262. For the same binder, the “glycan array binding signal (z-score)” value [4] was -0.286, the “glycan array binding signal (z-score)” value [5] was -0.008 and the “glycan array binding signal (z-score)” value [6] was -0.389. The “glycan array binding signal (z-score)” value [7] was -0.457, the “glycan array binding signal (z-score)” value [8] was 2.39 and the “glycan array binding signal (z-score)” value [9] was 1.27. The “glycan array binding signal (z-score)” value [10] was -0.205, the “glycan array binding signal (z-score)” value [11] was 0.655 and the “glycan array binding signal (z-score)” value [12] was 2.33. The “glycan array binding signal (z-score)” value [13] was 1.97, the “glycan array binding signal (z-score)” value [14] was -0.113 and the “glycan array binding signal (z-score)” value [15] was 0.058. The “glycan array binding signal (z-score)” value [16] was 1.85, the “glycan array binding signal (z-score)” value [17] was -0.069 and the “glycan array binding signal (z-score)” value [18] was -0.096. The “glycan array binding signal (z-score)” value [19] was 0.604, the “glycan array binding signal (z-score)” value [20] was -0.347 and the “glycan array binding signal (z-score)” value [21] was -0.318. The “glycan array binding signal (z-score)” value [22] was -0.434, the “glycan array binding signal (z-score)” value [23] was -0.193 and the “glycan array binding signal (z-score)” value [24] was -0.132. For the same binder, the “glycan array binding signal (z-score)” value [25] was -0.442, the “glycan array binding signal (z-score)” value [26] was -0.137 and the “glycan array binding signal (z-score)” value [27] was -0.18. For the same binder, the “glycan array binding signal (z-score)” value [28] was 2.33, the “glycan array binding signal (z-score)” value [29] was 2.19 and the “glycan array binding signal (z-score)” value [30] was -0.04. For the same binder, the “glycan array binding signal (z-score)” value [31] was 0.761, the “glycan array binding signal (z-score)” value [32] was 3.13 and the “glycan array binding signal (z-score)” value [33] was 2.27. The “glycan array binding signal (z-score)” value [34] was 1.19, the “glycan array binding signal (z-score)” value [35] was 2.31 and the “glycan array binding signal (z-score)” value [36] was 2.46. For the same binder, the “glycan array binding signal (z-score)” value [37] was 0.044, the “glycan array binding signal (z-score)” value [38] was 2.86 and the “glycan array binding signal (z-score)” value [39] was 1.88. The “glycan array binding signal (z-score)” value [40] was 0.86, the “glycan array binding signal (z-score)” value [41] was 0.96 and the “glycan array binding signal (z-score)” value [42] was 0.062. The “glycan array binding signal (z-score)” value [43] was -0.203, the “glycan array binding signal (z-score)” value [44] was 1.83 and the “glycan array binding signal (z-score)” value [45] was -0.452.
